Where a SMILES comes first, the peptide text is derived from it. The star is where a group is joined. Cbz = O=C(OCc1ccccc1)*; CH2F = FC*
System: caspase-3 in HUVEC
Procedure: The aspartate-specific cysteinyl proteases or caspases are a set of mediators implicated in apoptosis. The activation of caspase-3 in mammalian cells is a hallmark of apoptosis. To assess whether the mode of death induced by PlcHR2 was apoptotic or necrotic, caspase-3 activity was assayed with the colorimetric CaspACE Assay system (Promega, Madison, Wis.). The colorimetric substrate (Ac-DEVD-pNA) is hydrolyzed by activated caspase-3 releasing pNA producing a yellow color that is quantified at an absorbance of 405 nm. Camptothecin, a topoisomerase I inhibitor, was used as a positive control for activation of caspase-3 and induction of apoptosis. For inhibition of apoptosis Z-VAD-FMK was added to samples at a final concentration of 50 μM. HUVEC were cultivated in 6 well tissue culture dishes to 80-90% confluency at which time the media was exchanged with 2 ml of fresh media containing PlcHR2 or other compounds to be examined. The cultures were allowed to incubate at 37° C. in 5% CO2 for 3 to 16 hours. The cells were harvested by trypsin/EDTA treatment, washed with ice cold PBS and suspended in lysis buffer at a concentration of 1×10^8 cells/ml. […]
Both caspase-3 activation and LDH release were measured at 16 hours post treatment with increasing concentrations of PlcHR2. […]

SMILES | inhibition of PlcHR2 activation of caspase-3 | level of caspase-3 activity compared with 6.25 ng/ml PlcHR2
COC(=O)C[C@H](NC(=O)[C@H](C)NC(=O)[C@@H](NC(=O)OCc1ccccc1)C(C)C)C(=O)CF [Z-VAD-FMK] (Cbz-Val-Ala-Asp(OMe)-CH2F) | inhibited substantially all PlcHR2 activation of caspase-3 | 
CC[C@@]1(O)C(=O)OCc2c1cc1n(c2=O)Cc2cc3ccccc3nc2-1 [camptothecin] |  | similar
